Data published in PubChem BioAssay (NCATS).
Inconclusive means that the source gave no clear call. Such entries were picked first, then a sample of the others. For part of these data: Potencies of inconclusive entries are left out as doubtful fits. Activity calls are given as the source filed them. Unless noted, the call rests on the fitted dose curve; in most records, active means well fitted curve in the direction sought with a large enough effect; inconclusive means small, poorly fitted or top-dose-only effect, or another doubt; inactive means no such curve, though single readings can be large; an effect the other way counts as inactive or inconclusive.

Key:
[1] = qHTS of pediatric cancer cell lines to identify multiple opportunities for drug repurposing: Primary screen for SK-N-SH cells (AID 1347098); further: potency means the concentration at half of the fitted maximal effect; nearly all actives have a fitted effect of over 65% in size
Summary of the method: (§1)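 Cells (500-1,000/well) rested 5 h, then received compounds for 48 h; metabolically active cells were measured by CellTiter-Glo luminescence. Final concentrations spanned up to 46 µM (MIPE, 11-point) or 0.59 nM-46 µM (NPC, 8-point) in primary screens, 11-point in follow-ups.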

[2] = qHTS of pediatric cancer cell lines to identify multiple opportunities for drug repurposing: Primary screen for OHS-50 cells (AID 1347103); further: nearly all actives have a fitted effect of over 40% in size; further: potency means the concentration at half of the fitted maximal effect;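 on activity change, negative = cytotoxic: plate controls were DMSO neutral control for no effect and bortezomib positive control for full effect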
Summary of the method: as §1

[3] = qHTS of pediatric cancer cell lines to identify multiple opportunities for drug repurposing: Primary screen for MG 63 (6-TG R) cells (AID 1347105); details: MG 63 (6-TG R) viability, CellTiter-Glo, 48 h; activity change, negative = cytotoxic: at 46 µM (top of the series); further: nearly all actives have a fitted effect of over 50% in size; further: potency means the concentration at half of the fitted maximal effect; on activity change, negative = cytotoxic: on the % scale 0 is the no-effect control and ±100 the full control effect
Summary of the method: (§2)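 CRCs from 8- or 11-point titrations (lowest final 0.59 nM NPC, 0.78 nM MIPE). Cell viability: CellTiter-Glo after 48 h incubation, 15 min room-temperature development, luminescence imaging.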

[4] = qHTS of pediatric cancer cell lines to identify multiple opportunities for drug repurposing: Primary screen for Rh41 cells (AID 1347108); further: potency means the concentration at half of the fitted maximal effect; nearly all actives have a fitted effect of over 70% in size
Summary of the method: as §2

[5] = Primary qHTS for small molecule stabilizers of the endoplasmic reticulum resident proteome: Secreted ER Calcium Modulated Protein (SERCaMP) assay (AID 1508630); details: SH-SY5Y GLuc-SERCaMP (Gaussia luciferase released on ER calcium loss) secretion, thapsigargin, luminescence; activity change, negative = inhibition: at 38.4 µM (top of the series) unless noted; further: potency means the concentration at half of the fitted maximal effect
Summary of the method: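 GLuc-SERCaMP-expressing SH-SY5Y cells, pretreated 16 h with compound, are challenged with thapsigargin to empty ER calcium stores; after 4 h, coelenterazine is added directly to the medium and luminescence is imaged.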

[6] = biological target: Cytochrome P450 2D6 (Homo sapiens) (UniProt P10635); experiment: Cytochrome P450 family 2 subfamily D member 6 (CYP2D6) small molecule antagonists: luciferase biochemical (cell-free) qHTS assay (AID 1645840; active means well fitted curve in the direction sought with a large enough effect in the repeat runs; inconclusive means weak or mixed curves; inactive means no such curve, though single readings can be large; an effect the other way counts as inactive or inconclusive; further: nearly all actives have a fitted effect of over 55% in size; further: potency means the concentration at half of the fitted maximal effect)
Summary of the method: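 P450-Glo luminescent screen: recombinant CYP2D6 enzyme–proluciferin substrate mix preincubated with compound 10 min at room temperature, then NADPH regeneration added for 1 h at room temperature. Detection reagent added for 20 min; luciferin light read as relative luminescence units.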

[7] = biological target: Cytochrome P450 2C9 (Homo sapiens) (UniProt P11712); experiment: Cytochrome P450 family 2 subfamily C member 9 (CYP2C9) small molecule antagonists: luciferase biochemical (cell-free) qHTS assay (AID 1645842; active means well fitted curve in the direction sought with a large enough effect in the repeat runs; inconclusive means weak or mixed curves; inactive means no such curve, though single readings can be large; an effect the other way counts as inactive or inconclusive; further: nearly all actives have a fitted effect of over 55% in size; further: potency means the concentration at half of the fitted maximal effect; on activity change, negative = inhibition: on the % scale 0 is the no-effect control and ±100 the full control effect)
Summary of the method: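 Luminescence, after 20 min with luciferin detection reagent, reflected CYP2C9 turnover during a 1 h NADPH-driven reaction at 37C. Enzyme-substrate mix contained 0.4% bovine serum albumin and was preincubated with compound 10 min at room temperature.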

[8] = test system: Zika virus NS2B-NS3 protease (unlinked complex); experiment: Primary screen GU Rhodamine qHTS for Zika virus inhibitors: Unlinked NS2B-NS3 protease assay (AID 1347159); further: nearly all actives have a fitted effect of over 60% in size; further: potency means the concentration at half of the fitted maximal effect; on activity change, negative = inhibition: on the % scale 0 is the no-effect control and ±100 the full control effect
Summary of the method: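 Noncovalent NS2B hydrophilic domain–NS3 protease domain complex (25 nM) preincubated 15 min at room temperature with compounds (up to 114 microM) in 10 mM Tris-HCl pH 8.0, 0.01% Tween 20; 1.5 microM Rhodamine110 substrate added, fluorescence change over 15 min fitted to Hill equation.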

[9] = qHTS of pediatric cancer cell lines to identify multiple opportunities for drug repurposing: Primary screen for SJ-GBM2 cells (AID 1347091); further: potency means the concentration at half of the fitted maximal effect;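 on activity change, negative = cytotoxic: plate controls were DMSO neutral control for no effect and bortezomib for full effect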
Summary of the method: (§3)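 Viability measured as metabolically active cells via CellTiter-Glo luminescence following 48 hours of compound exposure, 11-point dilutions in confirmatory testing. 500-1,000 cells/well plated 5 hours before dosing; controls were DMSO and 2.3 µM bortezomib.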

[10] = qHTS of pediatric cancer cell lines to identify multiple opportunities for drug repurposing: Primary screen for A673 cells (AID 1347092); details: A673 Ewing sarcoma viability, CellTiter-Glo ATP luminescence, 48 h; activity change, negative = cytotoxic: at 46 µM (top of the series); further: nearly all actives have a fitted effect of over 45% in size; further: potency means the concentration at half of the fitted maximal effect; on activity change, negative = cytotoxic: on the % scale 0 is the no-effect control and ±100 the full control effect
Summary of the method: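 Cells are plated, rested 5 h, dosed by pintool, incubated 48 h, then lysed with CellTiter-Glo and read by luminescence. DMSO is the neutral control; bortezomib at 2.3 uM final is the positive control.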

[11] = qHTS of pediatric cancer cell lines to identify multiple opportunities for drug repurposing: Primary screen for BT-12 cells (AID 1347101); further: nearly all actives have a fitted effect of over 25% in size; further: potency means the concentration at half of the fitted maximal effect;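 on activity change, negative = cytotoxic: plate controls were DMSO for no effect and bortezomib positive control for full effect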
Summary of the method: as §1

[12] = qHTS of pediatric cancer cell lines to identify multiple opportunities for drug repurposing: Primary screen for NB1643 cells (AID 1347099); further: potency means the concentration at half of the fitted maximal effect; nearly all actives have a fitted effect of over 50% in size
Summary of the method: as §2

[13] = qHTS of pediatric cancer cell lines to identify multiple opportunities for drug repurposing: Primary screen for DAOY cells (AID 1347090); details: DAOY medulloblastoma viability, CellTiter-Glo luminescence, 48 h; activity change, negative = cytotoxic: at 46 µM (top of the series); further: nearly all actives have a fitted effect of over 55% in size; further: potency means the concentration at half of the fitted maximal effect;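 on activity change, negative = cytotoxic: plate controls were DMSO for no effect and bortezomib for full effect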
Summary of the method: as §3

[14] = qHTS of pediatric cancer cell lines to identify multiple opportunities for drug repurposing: Primary screen for BT-37 cells (AID 1347094); further: potency means the concentration at half of the fitted maximal effect
Summary of the method: as §2

[15] = qHTS of pediatric cancer cell lines to identify multiple opportunities for drug repurposing: Primary screen for NB-EBc1 cells (AID 1347095); further: potency means the concentration at half of the fitted maximal effect
Summary of the method: as §2

[16] = qHTS of pediatric cancer cell lines to identify multiple opportunities for drug repurposing: Primary screen for control Hh wild type fibroblast cells (AID 1347106);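 further: on the % scale 0 is the no-effect control and ±100 the full control effect; a drop in luminescence marks cytotoxicity and a rise apparent proliferation; nearly all actives have a fitted effect of over 55% in size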
Summary of the method: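 Viability after 48 h compound treatment at 37C, 500-1,000 cells/well, read as ATP luminescence with CellTiter-Glo. Primary screens used 11-point (MIPE, 0.78 nM-46 µM) or 8-point (NPC, 0.59 nM-46 µM) final concentrations; follow-up screens used 11-point dilutions.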

[17] = qHTS to identify inhibitors of the type 1 interferon - major histocompatibility complex class I in skeletal muscle: primary screen against the NCATS Mechanism Interrogation Plate v5.0 (MIPE) Libary (AID 1347411); details: iHSKM cells + IFN-b, HiBiT-tagged MHC-I luminescence, 24 h; activity change, negative = inhibition: at 45.8 µM (top of the series); further: nearly all actives have a fitted effect of over 65% in size; further: potency means the concentration at half of the fitted maximal effect;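 on activity change, negative = inhibition: plate controls were vehicle for no effect and reference inhibitor for full effect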
Summary of the method: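 Immortalized human myoblasts (C25cl48) with HiBit knocked into endogenous HLA-B*08:01 were stimulated with 4 ng/ml IFN-beta and given compounds in 11-point 1:3 titration from 46 uM. After 24 h at 37 C, lytic HiBiT luminescence was read.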

[18] = test system: Zika virus NS2B-NS3 protease (linked construct); experiment: Primary screen NINDS Rhodamine qHTS for Zika virus inhibitors (AID 1347160); details: activity change, negative = inhibition: at 57.1 µM (top of the series) unless noted; further: nearly all actives have a fitted effect of over 55% in size; further: potency means the concentration at half of the fitted maximal effect
Summary of the method: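 Purified linked NS2B-NS3 protease (NS2B hydrophilic domain joined to NS3 protease by flexible linker), 25 nM in 10 mM Tris-HCl pH 8.0, 0.01% Tween 20. Compounds titrated, 15 min preincubation at room temperature; 1.5 microM Rhodamine110 substrate, FITC fluorescence change over 15 min.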
Tags describe the fitted curve by direction and shape.

Chain of UniProt P10635 (P10635 whole entry, looked up): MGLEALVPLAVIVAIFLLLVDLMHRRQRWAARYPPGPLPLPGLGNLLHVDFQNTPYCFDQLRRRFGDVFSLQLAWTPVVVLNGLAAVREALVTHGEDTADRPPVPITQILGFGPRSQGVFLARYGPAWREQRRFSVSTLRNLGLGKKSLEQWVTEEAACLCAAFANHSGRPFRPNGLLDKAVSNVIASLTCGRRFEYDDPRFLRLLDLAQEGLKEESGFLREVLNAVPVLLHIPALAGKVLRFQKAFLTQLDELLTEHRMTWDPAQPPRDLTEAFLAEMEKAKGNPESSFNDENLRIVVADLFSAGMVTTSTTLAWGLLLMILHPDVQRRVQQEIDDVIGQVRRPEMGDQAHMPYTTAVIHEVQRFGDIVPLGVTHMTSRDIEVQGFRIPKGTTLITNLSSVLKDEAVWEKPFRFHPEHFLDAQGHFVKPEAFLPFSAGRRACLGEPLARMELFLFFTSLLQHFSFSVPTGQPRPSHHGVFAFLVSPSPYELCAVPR
Chain of UniProt P11712 (P11712 whole entry, looked up): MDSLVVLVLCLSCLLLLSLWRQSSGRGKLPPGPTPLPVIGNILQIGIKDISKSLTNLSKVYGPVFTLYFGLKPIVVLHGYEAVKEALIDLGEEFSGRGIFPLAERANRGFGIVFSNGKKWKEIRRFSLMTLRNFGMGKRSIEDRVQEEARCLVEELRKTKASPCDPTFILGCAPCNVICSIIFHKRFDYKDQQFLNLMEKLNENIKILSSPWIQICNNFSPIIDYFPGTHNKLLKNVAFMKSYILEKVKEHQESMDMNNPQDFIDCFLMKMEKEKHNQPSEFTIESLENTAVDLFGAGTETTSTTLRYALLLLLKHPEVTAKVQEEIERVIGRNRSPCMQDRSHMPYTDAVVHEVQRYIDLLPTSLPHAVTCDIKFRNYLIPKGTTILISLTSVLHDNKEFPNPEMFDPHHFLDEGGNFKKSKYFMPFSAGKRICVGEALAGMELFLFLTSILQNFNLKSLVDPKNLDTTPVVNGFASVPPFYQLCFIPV

Q: For `CCOC(=O)[C@H](CCc1ccccc1)N[C@@H](C)C(=O)N(CC(=O)O)C1Cc2ccccc2C1`, which Potency [1] is on record?
A: inconclusive [cytotoxic, single point]

Q: And the Potency [2]?
A: inactive

Q: And the activity change, negative = cytotoxic [3]?
A: inconclusive: -32.1% [cytotoxic]

Q: What about the Potency [4] of the same molecule?
A: inconclusive [cytotoxic, partial curve, poor fit]

Q: What about the Potency [5] of the same molecule?
A: inconclusive [inhibitor, single point]

Q: And the Potency [6]?
A: inconclusive [inhibitor, partial curve, poor fit]

Q: What about the Potency [7] of the same molecule?
A: active: 19.5 µM

Q: With `CC(=O)OC[C@]1(O)[C@H]2[C@H](OC(=O)CC(C)C)OC=C(CO[C@@H]3O[C@H](CO)[C@@H](O)[C@H](O)[C@H]3O)[C@H]2C[C@@H]1O` as the molecule, how does the Potency [8] read?
A: inconclusive [inhibitor, partial curve, poor fit]

Q: For `CCCN(CCC)S(=O)(=O)c1ccc(C(=O)O)cc1`, which Potency [9] is on record?
A: inactive

Q: What about the Potency [10] of the same molecule?
A: inactive

Q: What about the Potency [11] of the same molecule?
A: inactive

Q: What about the Potency [5] of the same molecule?
A: inconclusive [inhibitor, full curve]

Q: Which Potency [8] does the source give for `Nc1nc(Nc2ccc(S(N)(=O)=O)cc2)n(C(=S)Nc2c(F)cccc2F)n1` here?
A: inconclusive [inhibitor, single point]

Q: And the Potency [7]?
A: inconclusive [inhibitor, single point]

Q: Which results are given for `O=c1[nH]c(=O)n([C@H]2CCCO2)cc1F`?
A: Potency [9]: inactive; Potency [12]: inconclusive [cytotoxic, single point]; Potency [11]: inactive; Potency [5]: inconclusive [inhibitor, partial curve, poor fit]; Potency [7]: inactive

Q: With `O=C1NC(=O)C(c2cn3c4c(cccc24)CCC3)C1c1c[nH]c2ccccc12` (stereo unspecified) as the molecule, how does the Potency [8] read?
A: inconclusive [inhibitor, single point]

Q: What does the source list for `Cc1cccc(OCC(O)CNC(C)(C)C)c1C` (stereo unspecified)?
A: Potency [2]: inactive; Potency [7]: inactive

Q: What does the source list for `CCOC(=O)C1=C(C)NC(C)=C(C(=O)OCC)C1c1ccccc1/C=C/C(=O)OC(C)(C)C`?
A: Potency [13]: inconclusive [cytotoxic, single point]; Potency [9]: inconclusive [cytotoxic, single point]; Potency [10]: inconclusive [cytotoxic, single point]; Potency [14]: inconclusive [cytotoxic, single point]; Potency [15]: inconclusive [cytotoxic, single point]; Potency [1]: active: 27.3 µM; Potency [12]: inconclusive [cytotoxic, single point]; Potency [11]: inconclusive [cytotoxic, single point]; Potency [2]: active: 15.5 µM; Potency [3]: active: 26.6 µM; Potency [4]: inconclusive [cytotoxic, single point]; Potency [6]: inconclusive [inhibitor, partial curve, poor fit]

Q: Which Potency [13] does the source give for `CCCN(CCC)C(=O)C(CCC(=O)O)NC(=O)c1ccccc1` (stereo unspecified) here?
A: inactive

Q: What about the Potency [2] of the same molecule?
A: inactive

Q: And the Potency [16]?
A: inactive

Q: What about the Potency [17] of the same molecule?
A: inactive

Q: For `Oc1ccc([C@H]2COc3cc(O)ccc3C2)cc1`, which Potency [8] is on record?
A: inactive

Q: With `COc1cc(N2CCC(O)CC2)ccc1Nc1cc(Nc2ccccc2S(=O)(=O)C(C)C)c2cc[nH]c2n1` as the molecule, how does the Potency [17] read?
A: inconclusive [inhibitor, single point]

Q: And the Potency [6]?
A: inconclusive [inhibitor, single point]

Q: And the Potency [7]?
A: active: 6.61 µM

Q: Which Potency [6] does the source give for `NC(=O)c1cccc2cn(-c3ccc(C4CCCNC4)cc3)nc12` (stereo unspecified) here?
A: inactive

Q: For `Cc1c(C(=O)NCCCO)cnn1-c1nc(-c2cccc(C(F)(F)F)c2)cs1`, which Potency [6] is on record?
A: inconclusive [inhibitor, single point]

Q: With `C/C=C1\[C@H](O[C@@H]2O[C@H](CO)[C@@H](O)[C@H](O)[C@H]2O)OC=C(C(=O)OC)[C@H]1CC(=O)OC[C@H]1O[C@@H](OCCc2ccc(O)cc2)[C@H](O)[C@@H](O)[C@@H]1O` as the molecule, how does the Potency [8] read?
A: inconclusive [inhibitor, full curve, poor fit]

Q: Which Potency [18] does the source give for `CC1(C)[C@@H](O)CC[C@]2(C)[C@H]3CC=C4[C@@H]5C[C@](C)(C(=O)O)CC[C@]5(C)CC[C@@]4(C)[C@]3(C)CC[C@@H]12` here?
A: inconclusive [inhibitor, full curve, poor fit]

Q: What does the source list for `N#C/C(=C1\Nc2ccccc2S1)c1ccnc(NCCc2cccnc2)n1`?
A: Potency [8]: inconclusive [inhibitor, full curve, poor fit]; Potency [18]: inconclusive [inhibitor, partial curve, poor fit]

Q: Which Potency [8] does the source give for `CCCCOC(=O)NC(=O)C1c2ccccc2Oc2ccccc21` here?
A: inconclusive [inhibitor, partial curve]

Q: And the Potency [18]?
A: inactive

Q: What about the Potency [7] of the same molecule?
A: inconclusive [inhibitor, full curve]
